{"source": "the RNAGym collection of RNA variant scans (doi:10.1093/nar/gkz1192)", "parents": {"B1": {"name": "CPEB3 Ribozyme (parent)", "chain": "UAACAGGGGGCCACAGCAGAAGCGUUCACGUCGCAGCCCCUGUCAGAUUCUGGUGAAUCUGCGAAUUCUGCUGUAUAUCUC"}}, "note": "Read counts are not given, so values of variants with three or more changes are uncertain."}
{"variants_of": "B1", "test": "self-cleavage, relative activity (ratio to wild type); higher = more cleavage; in vitro, sequencing", "outline": "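After error-prone PCR and barcoding, CPEB3 ribozyme mutant libraries were transcribed with T7 RNA polymerase at 37°C for 5 hours, then given 15 min with DNase I before an EDTA stop, and they cleaved during both steps. Reverse transcription with template switching preceded Illumina sequencing. Relative activity divides a variant's cleaved/total read fraction by the unmutated ribozyme's. At least 5 reads were required per variant, and three batches were averaged.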"}
{"variant": "UAACAGGGGGCCACAGCCGAAGCGUUCACGUCGCAGUCCCUGUCAGAUUCAGGUGAAUCUGGGAAUUCUGCUGUAUAUCUC", "self-cleavage": 0.07}
{"variant": "UAACAGGGGGCCACAGCCAAAGCGUUCACGUCGCAGCCCAUGCCAGAUUCUGGUGAAUCUGCGUGUUCUGCUGUAUAUCCC", "self-cleavage": 0.1}
{"variant": "UAACAGGGGGCCACAGCCUAAGCGUUCACGUCGCAGCCCCCGUCAGAUUCUGGUGAAUCUGCGAUUUCUGCUGUAUAUCUC", "self-cleavage": 0.09}
{"variant": "UAACAGGGGGCCACAGCCGAAGCAUUUACGUCGCAGCCCCUGUCAGAUUCUGGUGAACCUGCGAAUUCUGCUGUAUAUCUC", "self-cleavage": 0.07}
{"variant": "UAACAGGGGGCCACAGCCGAAGCAUUCACGUCGCAGCCCCUGUCAGAAUCUGGUGAAUCAGCGAAUCCUGCUGUAUAUCUC", "self-cleavage": 0.04}
{"variant": "UAACAGGGGGCCACAGCCGAAGCAUUCACGUCGCAGCCCCUGUCAGAUUCUGGUGAAUCUGCGAAUUCUGCUGUAUAACUC", "self-cleavage": 0.25}
{"variant": "UAACAGGGGGCCACAGCCGAAGCGUUCACCUCGCAGCCCCUGCCAGAUUCUGGUGUAUCUGCGAAUUCUGCUGUAUAUCUC", "self-cleavage": 0.15}
{"variant": "UAACAGGGGGCCACAGCCGAAGCGUUCACGUCACAGCCCCUGCCCGAUUCUGGUGAAUCUGCGAAUUCUGCCGAAUAUCUC", "self-cleavage": 0.23}
{"variant": "UAACAGGGGGCCACAGCCGAAGCGUUCACGUCACAGCCCCUGUCAGACCCUGGUGAAUCUGUGAAUUCUGCUGUAUAUCUC", "self-cleavage": 0.14}
{"variant": "UAACAGGGGGCCACAGCCGAAGCGUUCACGUCGCAGCCCCUGUCAGAUUCUAGUGAAUCCGCGAAUUCUGCAGUAUAUCUC", "self-cleavage": 0.18}
{"variant": "UAACAGGGGGCCACAGCCGAAGCGUUCACGUCGCAGCCCCUGUCAGAUUCUAGUGAAUCUGCGAAUUCUGCUGUAUAUCAC", "self-cleavage": 0.83}
{"variant": "UAACAGGGGGCCACAGCCGAAGCGUUCACGUCGCAGCCCCUGUCAGAUUCUGCUGAACCUGCGAAUUCUGCUGAAUAUCUC", "self-cleavage": 0.14}
{"variant": "UAACAGGGGGCCACAGCCGAAGCGAUCACGCCGCAGCCCCUGUCAGAUCCUGGUGAAUCUGCGAGUUCUGCUGUAAAACUC", "self-cleavage": 0.04}
{"variant": "UAACAGGGGGCCACAGCCGAAGCGCUCACGUCGCAGCCCCUGUCAGUUUCAGGUGAAUCUGCGGAUUCUGCUGUAUAUCUC", "self-cleavage": 0.08}
{"variant": "UAACAGGGGGCCACAGCCGAAGCGCUCACGUCGCAGCCCCUGUCAGAUUCUGGUGGAUCCGCGAAUUCUGCUGUAUAUCUC", "self-cleavage": 0.08}
{"variant": "UAACAGGGGGCCACAGCCGAAGCGCUCACGUCGCAGCCCCUGUCAGAUUCUGACGAAUCUGCGAAUUCUGCCGUAUAUCUC", "self-cleavage": 0.14}
{"variant": "UAACAGGGGGCCACAGCCGAAGCGCUCACGUCGCAGCCCCUGUCAGAUUCUGGUGAAUCUGCGAAUUCUGCUGUAAAUCUC", "self-cleavage": 0.04}
{"variant": "UAACAGGGGGCCACAGCCGAAGCGUACACGUCGCAGCCCCUGUCAGAUUCUGGUGAAUCUGCGAAUACUGCUGUACAUCAC", "self-cleavage": 0.09}
{"variant": "UAACAGGGGGCCACAGCCGAAGCGUCCGCGUCGCAGCCCCUGUCAGAUUCUGGUGAAUCCGCGAAUUCAGCCGUAUAUCUC", "self-cleavage": 0}
{"variant": "UAACAGGGGGCCACAGCCGAAGCGUCCACGUCGCAGCCCCUGUCUGAUUCUGGUGAAUCUGCGAAUUCUGCUGUAUAUCUC", "self-cleavage": 0.29}
{"variant": "UAACAGGGGGCCACAGCCGAAGCGUCCACGUCGCAGCCCCUGUCAGUUUCUGGUGAAUCGGCGAAUUCUGCUGCAUAUCUC", "self-cleavage": 0.17}
{"variant": "UAACAGGGGGCCACAGCCGAAGCGUCCACGUCACAGCCCCUGUCAGACCUUGGUGAAUCUGUGAAUUCUGCUGUAUAUCUC", "self-cleavage": 0.16}
{"variant": "UAACAGGGGGCCACAGCCGAAGCGUCCACGUCGCAGCCCCUGUCAGAUCCUGGUGAACCUGCGAAUUCUGCUGUAUAUCUC", "self-cleavage": 0.04}
{"variant": "UAACAGGGGGCCACAGCCGAAGCGUCCACGUCGCAGCCCCUGUCAGAUUCCGGUGGAUCUGCGAACUCUGCUGUAUAUCCC", "self-cleavage": 0.18}
{"variant": "UAACAGGGGGCCACAGCCGAAGCGUCCACGUCGCAGCCCCUGUCAGAUUCUGGUGAAUCUGCGAAUUCUGCUGUAUACCUC", "self-cleavage": 0}
{"variant": "UAACAGGGGGCCACAGCCGAAGCGUUCACGACGCAGCCCCUGUCAGAUCCUGGUGAAUCUGCGAAUUCUGCCGUAUAUCUC", "self-cleavage": 0.07}
{"variant": "UAACAGGGGGCCACAGCCGAAGCGUUCACGCCGCAGCCCCUGUCAGAUCCUGGUGAAUCUGCGAACUCUGCUGUAUAUCUC", "self-cleavage": 0.07}
{"variant": "UAACAGGGGGCCACAGCCGAAGCGUUCACGCCGCAGCCCCUGUCAGAUUCAGGUGAAUCUGCGAAUUCUGCUGUAUAUCUC", "self-cleavage": 0.11}
{"variant": "UAACAGGGGGCCACAGCCGAAGCGUUCACGUCGCAGCCCCAGUCAGAUUCUGGUGAAUCUGCGAACUCUGCUGUACAUCUC", "self-cleavage": 0.08}
{"variant": "UAACAGGGGGCCACAGCCGAAGCGUUCACGUCGCAGCCCCUGCCAGAUUCUGGUGAAUCUGCGUAUUCCGCUGUAUAUCUC", "self-cleavage": 0.11}
{"variant": "UAACAGGGGGCCACAGCCGAAGCGUUCACGUCGCAGCCCCUGCCAGACUCUGGUGAAUCUGCGAUUUCUGCUGUAUAUCUC", "self-cleavage": 0.17}
{"variant": "UAACAGGGGGCCACAGCCGAAGCGUUCACGUCGCAGCCCCUGUCAGACUCUGAUGAAUCUGCUAAUUCUGCUGUAUAUCUC", "self-cleavage": 0.38}
{"variant": "UAACAGGGGGCCACAGCCGAAGCGUUCACGUCGCAGCCCCUGUCAGACUCUGGUGAAUCUGCGAAUUCCGCUGUAUAUCUC", "self-cleavage": 0.2}
{"variant": "UAACAGGGGGCCACAGCCGAAGCGUUCACGUCGCAGCCCCUGUCAGAUACAGGUGAAUUCGCGAAUUCUGCUGUAUAUCUC", "self-cleavage": 0.05}
